First the molecules themselves.
T1: UNK ZnF1-3 (human, UniProt Q9C0B0 31-174)
T1 sequence: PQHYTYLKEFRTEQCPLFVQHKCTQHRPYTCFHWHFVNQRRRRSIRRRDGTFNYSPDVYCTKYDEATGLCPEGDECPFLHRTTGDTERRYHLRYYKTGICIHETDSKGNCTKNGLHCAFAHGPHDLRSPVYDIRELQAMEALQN

B1: chr2:101883234:101883235:+_ENSG00000158435_ENST00000289382|hu_mus|motif|central (ssRNA)
RNA: GGGAGUUCUACAGUCCGACGAUCGAAAUACUCCGUGAUCUGGCUUGACUGCAUCAGUUUCAGCAGCAUUUCUAUAGCGACGGAAGGGUUGUUCUCCACUAGAUCUGGAAGUUUCGCUGGAGUAAGGCCAAUGUGAUAAACAAGCAACAGAGGAUUGAGCAUCA
B2: chr7:65705844:65705845:+_ENSG00000169902_ENST00000304842|hu_mus|hu_hu_hu_mus_False|58_88 (ssRNA)
RNA: GGGAGUUCUACAGUCCGACGAUCAAACGGAUCUUUGUUACAUAAAUAAGGGGCUGGCUCCCCAUGUUUAACAAUGAUUUCUAGUAAGAAGGCUUGCAUGGCAGAAUCUAGCACUUCAUCUGUGACACCCGCCUCAUCCAAGCGCAACAGAGGAUUGAGCAUCA
B3: chr7:54825262:54825263:-_ENSG00000132432_ENST00000352861|hu_hu|hu_hu_hu_mus_False|28_68 (ssRNA)
RNA: GGGAGUUCUACAGUCCGACGAUCCUGCCGGCUGGGCUCCACAAACUGCAUUACCUGAUCCAUGUUUUACCCAACCGGGAUUGAGAGCGUAGAGACACGUAGCUCAGGGAGCUUGCUAGCCCAACGGAACCGGAAGCUGGCAACCAACAGAGGAUUGAGCAUCA
B4: 90366439_90367966_15320_CDS_ENSG00000112159_ENST00000369393|human|control|control (ssRNA)
RNA: GGGAGUUCUACAGUCCGACGAUCCUUCUGGGAGGCCAACUGGGCAAUGAAAUUCGAUUCAUGGCCUUCUGCCUGGUUUGCAUCUGCAGCUCCACUUCCGUGUUCCUCUUUCCCCUGCUCCUUCUCAGGUGCGGCCCCAGCCAGCAACAGAGGAUUGAGCAUCA
B5: chr17:34945718:34945719:+_ENSG00000005955_ENST00000304718|hu_mus|FALSE|FALSE (ssRNA)
RNA: GGGAGUUCUACAGUCCGACGAUCAUUUAAGCGGCAGUAUUUAUUAAAUUUCUCCUUCAGAUGCUGUCGGUAUUGUUCUCUAUUGCUGUAGAAAGACUGGUUAUUAGCCAUAAAUGACUGUAUUUCAUCUUGUGAGAUAAAGAUCAACAGAGGAUUGAGCAUCA
B6: chr13:24895032:24895033:+_ENSMUSG00000019132_ENSMUST00000019276|mus_mus|FALSE|FALSE (ssRNA)
RNA: GGGAGUUCUACAGUCCGACGAUCAUAUUAGCAGACUGUCAUACCACAGGGUCAAGAAACAAAAGUUGCUGUCCAGUCAUGUUUGGACAAUAAUGUUUGGGGGUUAGAUGGGGAAGGUGAAGGGGAAGGAAAGAAAGAGGAGAACAACAGAGGAUUGAGCAUCA
B7: chr13:100193624:100193625:-_ENSMUSG00000052727_ENSMUST00000064762|mus_hu|motif|central (ssRNA)
RNA: GGGAGUUCUACAGUCCGACGAUCUAAACCCUCAUCAUAGUUAGCAGUGCAAAACAUAGACUUAUCAGACAAAAAUCAACGGAAAUGUUAAUUUUGAAAUAAAUAACUAACAUAGAAAAUAAAAUGAGGUCAUUGUUCUCUACUCAACAGAGGAUUGAGCAUCA
B8: 114299371_114299925_1475_CDS_ENSMUSG00000021143_ENSMUST00000084891|mouse|control|control (ssRNA)
RNA: GGGAGUUCUACAGUCCGACGAUCAAUGAUAUUCUCGGGGAGUUGGUCAUCAGAGAUGAGGAUGUGGUUCAAUUGGUCAUACACAGUUUUCCUGGGAAUCUGAAGCUGGCUCCUCGUGUCUGGACAGCGCUCAUUGUCUAGGCUCAACAGAGGAUUGAGCAUCA
B9: chr7:102939105:102939106:+_ENSG00000105819_ENST00000453466|hu_hu|motif|central (ssRNA)
RNA: GGGAGUUCUACAGUCCGACGAUCUCCAACUGUGCAUGUUGAGAGCCCAGAGUCUUCCGAAGCUACUCUGAGUCCACUUUCGGAACAUGUUACUCUUGUUUCAGGAACAUUCAGAACAACUUGGGUAGCAGCCUGUGUACUUCUCAACAGAGGAUUGAGCAUCA
B10: chr7:141445308:141445309:+_ENSG00000106028_ENST00000265304|hu_hu|hu_hu_hu_mus_False|8_58 (ssRNA)
RNA: GGGAGUUCUACAGUCCGACGAUCUAUGAUUGUUGUUGCUUGCCGCCUCACAUUGUUUUUAUCCAUGUACUCGCCAUAGUCUAUUUUCCCUUCCACAAAUAUACGAGCCCCCUUUUUCACAUACUGAUAUGCCACGUCUCUGAGCAACAGAGGAUUGAGCAUCA
B11: chr8:125590379:125590380:+_ENSMUSG00000000738_ENSMUST00000108868|mus_mus|FALSE|FALSE (ssRNA)
RNA: GGGAGUUCUACAGUCCGACGAUCUCUGACUGCAUUUGGAACUAUAUGCUGUUUCAGUAACAAUCCGCUAAUACCUUCAAAGCUAGGGGUCAGUAUUCGCAAUAGCAAACUCUGAGGCGCGUGGCCUCCAGCCGCAGCCGGGCCCAACAGAGGAUUGAGCAUCA
B12: chr2:65473824:65473825:+_ENSG00000138071_ENST00000260641|hu_hu|FALSE|FALSE (ssRNA)
RNA: GGGAGUUCUACAGUCCGACGAUCGUUUUUGGUUGGGUUCAUAGGAGGUUCUGUGAGUAAGAUUUUACAAUUUCUGGUAUCUAUAUUAAGUUUCUCUGGUCCAAAUGUGUAGUCCCACAGGUGUUUCAUGUCAUCCCAAUUUCGCAACAGAGGAUUGAGCAUCA
B13: chr17:27613171:27613172:-_ENSG00000108256_ENST00000225388|hu_hu|motif|central (ssRNA)
RNA: GGGAGUUCUACAGUCCGACGAUCCGUAGGAGAGGCCAGAGGAUUUUGACUUUCUAUCUCGUAGUCCUUUGAGAGAAACACGGAAGCACCUUGACUACUGGUGUCUGCUUUCUGCAGGUCACCUAUAUGACUGGGUUCCAAGGACAACAGAGGAUUGAGCAUCA
B14: chr17:60770872:60770873:+_ENSG00000011028_ENST00000303375|hu_hu|hu_hu_hu_mus_True|8_98 (ssRNA)
RNA: GGGAGUUCUACAGUCCGACGAUCUCUUUAAAAAAAAUUCCUUUUUUACAAACAAUAAUAGCACAUUUCGAGAAUCAAGAACUACAAUAGAGGGUCCGCUUUGAGUUUUUGUUCACAUCGUCCUGCAACGCUGUCGCGGGACUGCAACAGAGGAUUGAGCAUCA
B15: chr8:29963340:29963341:+_ENSG00000104660_ENST00000321250|hu_hu|motif|central (ssRNA)
RNA: GGGAGUUCUACAGUCCGACGAUCUUUUCACCACUGCUGCCAGCUGAAGUCGUCAUUGCUUCCAAAGACCAAGAAAAAGCCGGGUAUAGUUGCAAAGAUGACUGUGUUUCCUGUGAGAACAAGUGCACAAGCUCCCCACUCAAUCAACAGAGGAUUGAGCAUCA
B16: 72613626_72632935_896_3pUTR_ENSG00000137478_ENST00000311172|human|control|control (ssRNA)
RNA: GGGAGUUCUACAGUCCGACGAUCUUUGUGAAAUACAGCGUUUUCUUGCAAAAACAGCUGAAGAUUGUAGUCCCGGACCACCUUGCUGGAGUUUUCUAAUAAAAACUGGAAUGUGUUCUGCACAGCUUGGCAUGUUUCUAGCUCCAACAGAGGAUUGAGCAUCA
B17: chr10:127947519:127947520:-_ENSMUSG00000025366_ENSMUST00000026427|mus_hu|FALSE|FALSE (ssRNA)
RNA: GGGAGUUCUACAGUCCGACGAUCGCUCAGGUCCCCGCCCCAGGGGCCCAGAAGGAUAAAGGCCGUGCAGUAAAGGGAACAUACGGUUCUUCUCUUUGGUCAGGCAAAGGCCCGAAUAUGGGCCUGUUAGGUGAAAGGGCUGAACAACAGAGGAUUGAGCAUCA
B18: chr5:139702750:139702751:+_ENSMUSG00000036817_ENSMUST00000110883|mus_hu|FALSE|FALSE (ssRNA)
RNA: GGGAGUUCUACAGUCCGACGAUCUCUCGACACGGGCCCGGGGGCCGCGGGGUGCGCCGUGAGCACGUCCUUGCGCUCGGACAGCAUGCUGCAGUUGCUGCAGGAGAAGCCGUUGUGCGCGGUGGCGGCGGCGGCUCCCACAUCCAACAGAGGAUUGAGCAUCA
B19: chr16:69481128:69481129:+_ENSG00000103018_ENST00000515314|hu_hu|FALSE|FALSE (ssRNA)
RNA: GGGAGUUCUACAGUCCGACGAUCCAACGGAUGGAUAUCACCAAUGUAGUACUGCUUUAGCAUUUCUCUGGCAUCAGAAGAGUGUCCUACAUCUUCAAAGCUUUCACUUGCAUCUACACCAGCUUGUUCCAGCAGAACCUCUUCCAACAGAGGAUUGAGCAUCA
B20: chr11:114320625:114320626:+_ENSG00000076043_ENST00000544827|hu_hu|FALSE|FALSE (ssRNA)
RNA: GGGAGUUCUACAGUCCGACGAUCAACUCACGGUCUUCUCAUUUUCCCCAUUUUCUAUAAUUUUCCUCUUCUUUUCAUCUAUUUUUUUCUUGAAGAUGUUAUUUCGGUAAAACUGAAGCUCUUUGAUGCUUUCACUAAUGUCAUCAACAGAGGAUUGAGCAUCA
B21: 76463319_76463439_2648_CDS_ENSMUSG00000059323_ENSMUST00000168185|mouse|control|control (ssRNA)
RNA: GGGAGUUCUACAGUCCGACGAUCACCAUCAAGACUUGUCAGGCGACUCUGCUUGACACGGGUCCGGGGCCUUGCAGGACAUCGCUCAUAGUCUGACACCGAGGUGCUGGGCCUGCCGCUGCGGGUCAGAGGUGUAUCUACCUCCAACAGAGGAUUGAGCAUCA
B22: chr7:141438946:141438947:+_ENSG00000106028_ENST00000265304|hu_mus|hu_hu_hu_mus_True|58_88 (ssRNA)
RNA: GGGAGUUCUACAGUCCGACGAUCGACGAAAUACCUGUAACACAGGUGAAACAUGGCUGGCUUCUGUUUUUCUUACAGUCUAAUCUUUAGGCUUUUCCUAAAGGAAAGAAAGAAAAGAGAAAAAUGAUAAAUCAAGAAACUACACAACAGAGGAUUGAGCAUCA

Some of the results follow.

This assay deals with T1, UNK ZnF1-3. Briefly: nsRBNS (natural sequence RNA bind-n-seq); RBNS binding buffer (assumed for nsRBNS): 25 mM Tris pH 7.5, 150 mM KCl, 3 mM MgCl2, 0.01% Triton X-100, 500 ug/ml BSA, 20 U/ml SUPERase-In, 4 C; UNK is unkempt and MSI1 is Musashi-1; names of the RNAs are library labels; protein concentration not given here; high values mean tight binding.
The molecule B1 yielded a binding signal of 1.21 enrichment R. For B2 the value was 0.895 enrichment R. Under B3 stands 0.61 enrichment R. For B4 the value was 0.685 enrichment R; for B5, 0.55 enrichment R; for B6, 2.31 enrichment R.

In turn, B7 registered a binding signal of 1.37 enrichment R. For B8 the value was 0.839 enrichment R; for B9, 0.607 enrichment R; for B10, 0.52 enrichment R. For B11 the value was 0.744 enrichment R.

Take B12: the binding signal stood at 0.707 enrichment R. For B13 the value was 1.11 enrichment R; for B14, 0.831 enrichment R. On to B15, for which the binding signal was 1.47 enrichment R.

For the molecule B16, the binding signal came out at 0.77 enrichment R. For B17 the value was 1.11 enrichment R; for B18, 0.417 enrichment R; for B19, 0.957 enrichment R. For B20 the value was 0.413 enrichment R. As to B21, the binding signal came to 0.485 enrichment R.

B22 gave a binding signal of 0.847 enrichment R.

The record behind these values is publication PMC12136788.
